The source of these data is publication PMC4930772, “Crystal structure of a PP2A B56-BubR1 complex and its implications for PP2A substrate recruitment and localization” (Protein & Cell, 2016).

B1: human BubR1([…]) D675A (domain or fragment)
chain: not shown
notes: also called BubR1-D675A; source: E. coli BL21 (DE3), purified the same way as wild type
B2: human BubR1([…]) S670A (domain or fragment)
chain: not shown
notes: also called BubR1-S670A; source: E. coli BL21 (DE3), purified the same way as wild type
B3: human BubR1([…]) R677A (domain or fragment)
chain: not shown
notes: also called BubR1-R677A; source: E. coli BL21 (DE3), purified the same way as wild type
B4: human BubR1([…]) P671A (domain or fragment)
chain: not shown
notes: also called BubR1-P671A; source: E. coli BL21 (DE3), purified the same way as wild type
B5: human BubR1([…]) K668A (domain or fragment)
chain: not shown
notes: also called BubR1-K668A; source: E. coli BL21 (DE3), purified the same way as wild type
B6: human BubR1([…]) S676A (domain or fragment)
chain: not shown
notes: also called BubR1-S676A; source: E. coli BL21 (DE3), purified the same way as wild type
B7: human BubR1([…]) K667A (domain or fragment)
chain: not shown
notes: also called BubR1-K667A; source: E. coli BL21 (DE3), purified the same way as wild type
B8: human BubR1([…]) I673A (domain or fragment)
chain: not shown
notes: also called BubR1-I673A; source: E. coli BL21 (DE3), purified the same way as wild type

This assay has as its target human PP2A B56γ1(30–380) (human, UniProt Q13362-2 fragment). Briefly: ITC; B56γ1 in the cell at 0.03 mmol/L, BubR1 protein or peptide at 0.7 mmol/L injected (20 x 1.5 µL); room temperature; 20 mmol/L Tris-HCl pH 8.0, 200 mmol/L NaCl; one-site model. As to conditions: both partners purified. In general terms: In ITC the heat of successive injections is recorded.
As a reminder, the Kd is the equilibrium constant for the complex coming apart. Broadly, the stoichiometry N is the number of molecules, sites or subunits per partner or assembly. With B1, the Kd was 2.06 ± 0.41 µM, the dH is -52.9 ± 2.3 kJ/mol and the “stoichiometry N” value turned out to be 1.09 ± 0.03.

In the case of B2, binding was characterised by a dissociation constant (Kd) of 2.34 ± 0.63 µM, the dH was -30.5 ± 2.09 kJ/mol and the “stoichiometry N” value stood at 1.06 ± 0.05.

Consider B3, for which the Kd is 5.85 ± 1.72 µM, the dH is -25.4 ± 3.47 kJ/mol and the “stoichiometry N” value was determined as 1.06 ± 0.11.

For B4, the Kd worked out at 4.08 ± 1.44 µM, the dH is -31.4 ± 3.68 kJ/mol and the “stoichiometry N” value came out at 1.1 ± 0.1.

Regarding B5, the Kd is 5.65 ± 1 µM, the dH is -43.9 ± 4.64 kJ/mol and the “stoichiometry N” value is 0.99 ± 0.08.

For B6, the dissociation constant (Kd) was 4.17 ± 0.75 µM, the dH was -45.8 ± 2.68 kJ/mol and the “stoichiometry N” value came to 1.07 ± 0.04.

In the case of B7, the Kd came out at 2.52 ± 0.37 µM, the dH is -35.3 ± 1.38 kJ/mol and the “stoichiometry N” value worked out at 1.03 ± 0.03.

On to B8, for which the dissociation constant Kd is 4.12 ± 0.33 µM, the dH is -31.6 ± 0.879 kJ/mol and the “stoichiometry N” value came out at 1.01 ± 0.02.
